The record followed here is paper PMC5892938.

The other results are listed elsewhere or left out. At the low end of the ranking the order means little.

For the test, the target named is GST-SBP-SLBP (stem-loop binding protein) (UniProt Q14493). Nature of the test: targeted RNA Bind-n-Seq.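 Note: DESeq read counts versus GST-SBP nonspecific binding control pulldown.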 Conditions: RBNS binding buffer: 25 mM Tris pH 7.5, 150 mM KCl, 3 mM MgCl2, 0.1% Tween, 0.5 mg/mL BSA, 1 mM DTT; 27 nM protein, 750 pM RNA pool; temperature not stated; high values mean tight binding.
Turning to “GGUCACGUCUCAAUCAACUCUCUAGAGGGGGGGAAAACCCCUUUGCCCUCAACUUCAACAGCUCGCAGUCAAG”, the binding signal (log2 fold change) was determined as 0.124.
For the sequence “GGUCACGUCUCAAUCAACUCUUAAGAGGGGGGGAAAACCCCUUUGCCCUCAACUUCAACAGCUCGCAGUCAAG”, the binding signal (log2 fold change) turned out to be 0.148.
The figure for “GGUCACGUCUCAAUCAACUCUUUUUCCAGGGAAAUCCCUGGCUAACUCAACAGCUCGCAGUCAAG” is -0.096.
With “GGUCACGUCUCAAUCAACUCUAUUCCCAGGGAAAUCCCUGGCUAUCUCAACAGCUCGCAGUCAAG”, the binding signal (log2 fold change) is 0.0246.
Consider “GGUCACGUCUCAAUCAACUCUUCCUCCAGGGAAAGCCCUGGUAUUUUCAACAGCUCGCAGUCAAG”, for which the binding signal (log2 fold change) is -0.0981.
Then “GGUCACGUCUCAAUCAACUCUAUCCCCAGGGAAACCCCUGGCUAAUUCAACAGCUCGCAGUCAAG”, with 0.12; and “GGUCACGUCUCAAUCAACUCAAUCUCAGGAGUUUACUCCUGUUUUCUCAACAGCUCGCAGUCAAG”, with -0.0401; and “GGUCACGUCUCAAUCAACUCUUCUCCCAGGGAAAACCCUGGUAAAUUCAACAGCUCGCAGUCAAG”, with -0.223.
Then “GGUCACGUCUCAAUCAACUCAGUCUCCAGGGAAAACCCUGGCAUUUUCAACAGCUCGCAGUCAAG”, with -0.2; and “GGUCACGUCUCAAUCAACUCCUAAGAGGGGGGGAAAACCCCUUUACCCUCCAACUCAACAGCUCGCAGUCAAG”, with -0.209.
Then “GGUCACGUCUCAAUCAACUCAAUCUCAGGAGUUUACUCCUGCUAUCUCAACAGCUCGCAGUCAAG”, with 0.0959; and “GGUCACGUCUCAAUCAACUCUUUUUCAGGAGUUUUCUCCUGUAAAUUCAACAGCUCGCAGUCAAG”, with 0.0343.
As for “GGUCACGUCUCAAUCAACUCUUCGCCAGGAGUUUCCUCCUGCUUAUUCAACAGCUCGCAGUCAAG”, the binding signal (log2 fold change) was 0.128.
Regarding “GGUCACGUCUCAAUCAACUCUAUUCCAGGAGUUUCCUCCUGUAUAUUCAACAGCUCGCAGUCAAG”, the binding signal (log2 fold change) is 0.0428.
With “GGUCACGUCUCAAUCAACUCUAACGAGGGGGGGAAAACCCCUUUGCCCUCAAAUUCAACAGCUCGCAGUCAAG”, the binding signal (log2 fold change) is -0.226.
“GGUCACGUCUCAAUCAACUCAUCUCCAGGAGUUUUCUCCUGUUUAUUCAACAGCUCGCAGUCAAG”: the binding signal (log2 fold change) was -0.0179.
The figure for “GGUCACGUCUCAAUCAACUCAUCCCCCAGGGAAACCCCUGGCUUACUCAACAGCUCGCAGUCAAG” is -0.0842; for “GGUCACGUCUCAAUCAACUCAAUCCCAGGAGUUUGCUCCUGUAAUCUCAACAGCUCGCAGUCAAG” it is 0.231; for “GGUCACGUCUCAAUCAACUCAUCGCCAGGAGUUUACUCCUGUAUUUUCAACAGCUCGCAGUCAAG” it is -0.0228.
For “GGUCACGUCUCAAUCAACUCUUCCCCCAGGGAAAACCCUGGUUAUUUCAACAGCUCGCAGUCAAG”, the binding signal (log2 fold change) amounted to 0.0358.
The figure for “GGUCACGUCUCAAUCAACUCUACGGAGGGGGGGAAAACCCCUUUACCCUCAAUCUCAACAGCUCGCAGUCAAG” is 0.159; for “GGUCACGUCUCAAUCAACUCAAUCCCAGGAGUUUACUCCUGUAAUGUCAACAGCUCGCAGUCAAG” it is -0.0722.
Regarding “GGUCACGUCUCAAUCAACUCUUCUCCAGGAGUUUCCUCCUGCUAAUUCAACAGCUCGCAGUCAAG”, the binding signal (log2 fold change) worked out at 0.0406.
Take “GGUCACGUCUCAAUCAACUCAUGUCCCAGGGAAACCCCUGGCUUUUUCAACAGCUCGCAGUCAAG”: the binding signal (log2 fold change) came out at 0.00746.
Regarding “GGUCACGUCUCAAUCAACUCUACAGAGGGGGGGAAAACCCCUUUACCCUCCCAUUCAACAGCUCGCAGUCAAG”, the binding signal (log2 fold change) is -0.0307.
Turning to “GGUCACGUCUCAAUCAACUCUUUCUCAGGAGUUUCCUCCUGUAUUCUCAACAGCUCGCAGUCAAG”, the binding signal (log2 fold change) was -0.0932.
The figure for “GGUCACGUCUCAAUCAACUCUUCGUCAGGAGUUUACUCCUGCUAUUUCAACAGCUCGCAGUCAAG” is -0.153.
In the case of “GGUCACGUCUCAAUCAACUCUAUCUCAGGAGUUUUCUCCUGUUUUUUCAACAGCUCGCAGUCAAG”, the binding signal (log2 fold change) is -0.105.
As to “GGUCACGUCUCAAUCAACUCUUUUCCCAGGGAAAGCCCUGGUUAUGUCAACAGCUCGCAGUCAAG”, the binding signal (log2 fold change) was determined as 0.0462.
Then “GGUCACGUCUCAAUCAACUCCAAAGAGGGGGGGAAAACCCCUUUACCCUCAAUUUCAACAGCUCGCAGUCAAG”, with -0.558; and “GGUCACGUCUCAAUCAACUCAUCGCCAGGAGUUUCCUCCUGUAAAUUCAACAGCUCGCAGUCAAG”, with -0.128; and “GGUCACGUCUCAAUCAACUCAUUUCCAGGAGUUUGCUCCUGCUAUCUCAACAGCUCGCAGUCAAG”, with 0.0256.
“GGUCACGUCUCAAUCAACUCAACGCCAGGAGUUUACUCCUGUUUUUUCAACAGCUCGCAGUCAAG”: the binding signal (log2 fold change) is -0.141.
Then “GGUCACGUCUCAAUCAACUCAAUGUCAGGAGUUUCCUCCUGUUAAUUCAACAGCUCGCAGUCAAG”, with -0.0697.
Then “GGUCACGUCUCAAUCAACUCCACGGAGGGGGGGAAAACCCCUUUACCCUCACUUUCAACAGCUCGCAGUCAAG”, with 0.177; and “GGUCACGUCUCAAUCAACUCCUUCGAGGGGGGGAAAACCCCUUUACCCUCAUCUUCAACAGCUCGCAGUCAAG”, with 0.0798; and “GGUCACGUCUCAAUCAACUCAUCCUCAGGAGUUUGCUCCUGUAAUUUCAACAGCUCGCAGUCAAG”, with 0.0494.
The figure for “GGUCACGUCUCAAUCAACUCCCACGAGGGGGGGAAAACCCCUUUACCCUCAUUAUCAACAGCUCGCAGUCAAG” is 0.227.
For the sequence “GGUCACGUCUCAAUCAACUCUAUCUCAGGAGUUUCCUCCUGCAAAUUCAACAGCUCGCAGUCAAG”, the binding signal (log2 fold change) was 0.109.
Then “GGUCACGUCUCAAUCAACUCAGUUUCAGGAGUUUUCUCCUGCAUUCUCAACAGCUCGCAGUCAAG”, with -0.0965.
Then “GGUCACGUCUCAAUCAACUCAAUCUCCAGGGAAAGCCCUGGCAUACUCAACAGCUCGCAGUCAAG”, with -0.0986.
For the sequence “GGUCACGUCUCAAUCAACUCCCAAGAGGGGGGGAAAACCCCUUUGCCCUCCAAAUCAACAGCUCGCAGUCAAG”, the binding signal (log2 fold change) was -0.0614.
Then “GGUCACGUCUCAAUCAACUCUUCCUCCAGGGAAAGCCCUGGCUAAUUCAACAGCUCGCAGUCAAG”, with -0.115; and “GGUCACGUCUCAAUCAACUCAAAUGAGGGGGGGAAAACCCCUUUACCCUCCACAUCAACAGCUCGCAGUCAAG”, with -0.354.
Turning to “GGUCACGUCUCAAUCAACUCAGUCUCAGGAGUUUGCUCCUGCUUUCUCAACAGCUCGCAGUCAAG”, the binding signal (log2 fold change) came to 0.0674.
Then “GGUCACGUCUCAAUCAACUCAACUCCAGGAGUUUACUCCUGCAUAUUCAACAGCUCGCAGUCAAG”, with 0.185.
Then “GGUCACGUCUCAAUCAACUCUAUCUCCAGGGAAAACCCUGGCUUUCUCAACAGCUCGCAGUCAAG”, with 0.0859.
